Source: PubChem BioAssay AID720647 (Broad Institute, 2013)
Out of some 380,000 compounds screened, about 1,300 (0.34%) were called active. The inconclusive results got no clear call from the source; some entries with a clear call stand among them for comparison.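 How the source made its calls: active means drop in luminescence signal, shown as inhibition above about 50% in the replicate tests (limit read from the data, passing the limit was not always enough); inconclusive means probably only some replicates passing the limit; inactive means the rest.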

test system: Drosophila bursicon receptor LGR2 (rickets); assay: inhibitors of bursicon-induced LGR2 CRE-luciferase signal, primary screen, cell-based, HEK293, CRE-luciferase reporter, bursicon stimulation (AID 720647); details: bursicon-stimulated, 4 h, at 9.99 µM, active compounds read high;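 further: agonist challenge used bursicon conditioned medium at about half maximal strength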

SMILES | inhibition
Cc1cccc(CSC(Nc2ccc(F)cc2)=C(C#N)C#N)c1 | inconclusive: 44.7%
CC=Cc1ccc2n(c1=O)C[C@@H]1[C@@H](CO)[C@H](C(=O)N3CCN(C)CC3)N(Cc3ccccc3F)[C@H]21 (mixture of isomers) | inactive: -9.94%
C=C(C)C1CC=C(C)/C(=N/NC(=O)CNc2ccc(OCC)cc2)C1 (stereo unspecified) | inconclusive: 5.68%
Cc1ccc([C@@H]2CC(=O)[C@@H]3CN(S(=O)(=O)c4ccccc4C)[C@H](c4ccc(Cl)cc4)C[C@@H]3N2S(=O)(=O)c2ccc(C)cc2)cc1 | inconclusive: 52.4%
Cc1cc2[nH]c3c(c[n+](C)c4ccccc34)c2cc1C | active: 100%
COCC(=O)Nc1ccc2c(c1)C(=O)N(C)C[C@H](OC)[C@@H](C)CN(C(=O)C1CCCC1)[C@H](C)CO2 | inactive: 0.137%
C[C@H]1CCCCO[C@@H](CN(C)S(=O)(=O)c2ccc(Cl)cc2)[C@@H](C)CN([C@@H](C)CO)C(=O)c2cc(NC(=O)NC3CCCCC3)ccc2O1 | inconclusive: -2.37%
COc1ccccc1NC(=O)COc1ccc(C(=O)OCC(=O)NC(C)(C)C)cc1OC | inconclusive: 36.1%
CCN(CC)S(=O)(=O)c1ccc(C(=O)OCC(=O)Nc2ccc(-c3nc4ccc(C)cc4s3)cc2)cc1 | inconclusive: 27%
C=CC[C@H](CC(=O)N(CCO)Cc1ccccc1)C(=O)N[C@@H](COC(=O)[C@@H](CC=C)Cc1ccc(F)cc1)Cc1ccccc1 | inconclusive: 25.5%
C[C@H](CO)N1C[C@H](C)[C@@H](CN(C)S(=O)(=O)c2ccccc2)Oc2ccc(NC(=O)CCCN(C)C)cc2C1=O | inactive: 10.3%
CCSc1nc2ccccc2n1C(=O)/C=C/c1ccc(OC)c(OC)c1 | inconclusive: 82.7%
COc1ccc(S(=O)(=O)Nc2ccc3c(c2)C(=O)N([C@@H](C)CO)C[C@@H](C)[C@H](CN(C)C(=O)Nc2cccc4ccccc24)OCCCC[C@H](C)O3)cc1 | inconclusive: 1.1%
Cc1ccc(-c2cc(-c3ccccc3)no2)cc1 | active: 57.1%
Cc1ccc(S(=O)(=O)c2ccc([N+](=O)[O-])o2)cc1 | inconclusive: 26.5%
Cc1cc(=O)n2c3c(c4c(cc13)c(CN(C)C)cc(=O)n4C)OC2 | active: 105%
CCCc1nc2c(=O)n(C)c(=O)nc-2n(C)n1 | active: 102%
c1ccc(COc2ccc(-c3cc4nc(NCCN5CCOCC5)ccn4n3)cc2)cc1 | inconclusive: 68.9%
CCC(C)(C)NC(=O)C(c1ccc(OC)cc1)N(C(=O)CCC(=O)Nc1cc(C)on1)c1ccccc1OC (stereo unspecified) | inactive: -5.18%
CCOC(=O)[C@]12CCCC=C1N(Cc1cccc3ccccc13)C(=O)[C@H](CC(=O)NCC1CCCCC1)C2 | inconclusive: 6.34%
CCOC(=O)Nc1ccc(N2CCOCC2)c(S(=O)(=O)Nc2ccc(Cl)cc2)c1 | inconclusive: 8.8%
C#CCN(C[C@@H]1[C@@H](OC(=O)NCc2ccco2)[C@@H](OC(=O)NCc2ccco2)Cn2c(=O)ccc(=O)n21)S(=O)(=O)c1ccc(C)cc1 | inconclusive: 46.1%
CC(=O)OCC(=O)C1(O)CCC2C3CCC4=CC(=O)CCC4(C)C3(Cl)C(O)CC21C (stereo unspecified) | inactive: 17.6%

SMILES | inhibition
c1c2c(cc3sc(N4CCCCC4)nc13)OCCO2 | active: 85.3%
Cc1noc(C)c1NC(=O)N(C)C[C@@H]1Oc2ncc(C#CC3CCCCC3)cc2C(=O)N([C@@H](C)CO)C[C@@H]1C | inactive: -10.4%
COc1ccc2c(c1)c(C(=O)O)c(C)n2-c1ccccc1 | inactive: 7.09%
CC1=NN(c2cccc(C(=O)O)c2)C(=O)/C1=C\C=C/c1ccccc1 | inconclusive: 67%
CCCOc1ccc2cc(-c3ccccn3)c(=O)oc2c1 | active: 88.5%
CC1(C)OC(=O)C2=C(C[C@@H](CCc3ccccc3)O[C@H]2CCc2cccc(Cl)c2)O1 | inconclusive: 50.8%
O=C(NCc1ccccc1Cl)C1CCC(=O)N1Cc1ccc(F)cc1 (stereo unspecified) | inconclusive: 3.71%
CCc1ccc(CNC(=O)c2cc3c(C)nc4ccccc4c3o2)cc1 | inactive: 15.1%
CC1Cc2ccccc2N1c1ncnc(N)c1[N+](=O)[O-] (stereo unspecified) | active: 63.8%
Cn1c(=O)c(Nc2ccc(Cl)cc2)c2c3c(cccc31)C(=O)c1ccccc1-2 | inconclusive: 2.01%
CCCCN(CCCC)S(=O)(=O)c1ccc(NC(=O)c2ccc([N+](=O)[O-])cc2Cl)cc1 | inconclusive: 18%
CCCCCCCCCCOC(=O)Cn1c(COc2ccc(C)cc2)[n+](C)c2ccccc21 | inconclusive: 71.4%
O=C(NC(=S)Nc1cc([N+](=O)[O-])ccc1O)c1ccc2c(c1)OCO2 | inconclusive: 63.8%
COc1ccc(N/N=C(\C#N)C(=N)SCc2ccccc2)cc1 | active: 66.6%
Cc1ccc(NC(=O)c2ccccc2NS(=O)(=O)c2ccc(Cl)s2)cc1S(=O)(=O)N1CCOCC1 | inconclusive: 42.2%
O=C1/C(=C\c2ccc([N+](=O)[O-])cc2)CS(=O)(=O)C/C1=C/c1ccc([N+](=O)[O-])cc1 | inconclusive: 1.03%
COc1ccc(C2CC(=O)C3=C(C2)NC(C)=C(C#N)C3c2ccc(N(C)C)cc2)cc1 (stereo unspecified) | inconclusive: 50.6%
CCc1c2c(nc3ccc(OC(=O)N4CCC(N5CCCCC5)CC4)cc13)-c1cc3c(c(=O)n1C2)COC(=O)[C@]3(O)CC | inconclusive: 54.7%
N#C[C@@H]1[C@H](c2ccc(C#Cc3ccccc3F)cc2)[C@@H](CO)N1C(=O)C1CC1 | inconclusive: 40.4%
NC(N)=NN=C(c1ccc(F)cc1)c1ccc(C(F)(F)F)cc1 | inconclusive: 54.2%
O=C(c1ccccc1)C(CN1CCCCC1)c1ccccc1 (stereo unspecified) | inconclusive: 70.8%
COc1ccc(CN(C(=O)c2nsc(Cl)c2Cl)C(C(=O)NC2CCCCC2)c2ccc(OC)cc2)cc1 (stereo unspecified) | inactive: 17.4%
Cc1ccc(S(=O)(=O)N(C)C[C@@H]2Oc3ccc(NS(=O)(=O)c4cccs4)cc3C(=O)N([C@H](C)CO)C[C@@H]2C)cc1 | inactive: 5.2%
